In PMC8673607, “ENAP1 retrains seed germination via H3K9 acetylation mediated positive feedback regulation of ABI5” (PLoS Genetics, 2021):
Results are given in words; binding and its absence hold for the method and conditions named. For some of these results: In cells and extracts the contact can be indirect. Some results given as binding are weak or reduced against the parent protein; the word gives no strength. Tags and fused reporters may be left off the sequences shown. Each block holds one binder with its values, some of them ahead of it.

What was measured:
[1] = biological target: T1, ENAP1 (two-hybrid construct tested against the ABFs, S3 Fig) (Arabidopsis) (UniProt Q8VZI9); experiment: two-hybrid; ProQuest Two-Hybrid System, AD and BD vectors co-transformed into yeast strain AH109; growth on SD/-Trp-Leu-His with 3'AT
T1 sequence: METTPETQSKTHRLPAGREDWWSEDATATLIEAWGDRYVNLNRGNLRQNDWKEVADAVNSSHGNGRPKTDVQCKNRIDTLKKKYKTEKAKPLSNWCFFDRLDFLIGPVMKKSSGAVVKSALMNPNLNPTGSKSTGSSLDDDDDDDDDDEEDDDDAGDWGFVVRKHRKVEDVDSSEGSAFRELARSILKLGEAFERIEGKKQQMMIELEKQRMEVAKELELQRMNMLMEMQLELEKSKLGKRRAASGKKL

BD-ABI5 (Arabidopsis) = biological target: T2, BD-ABI5 (Arabidopsis) (UniProt Q9SJN0); experiment: as above
T2 sequence: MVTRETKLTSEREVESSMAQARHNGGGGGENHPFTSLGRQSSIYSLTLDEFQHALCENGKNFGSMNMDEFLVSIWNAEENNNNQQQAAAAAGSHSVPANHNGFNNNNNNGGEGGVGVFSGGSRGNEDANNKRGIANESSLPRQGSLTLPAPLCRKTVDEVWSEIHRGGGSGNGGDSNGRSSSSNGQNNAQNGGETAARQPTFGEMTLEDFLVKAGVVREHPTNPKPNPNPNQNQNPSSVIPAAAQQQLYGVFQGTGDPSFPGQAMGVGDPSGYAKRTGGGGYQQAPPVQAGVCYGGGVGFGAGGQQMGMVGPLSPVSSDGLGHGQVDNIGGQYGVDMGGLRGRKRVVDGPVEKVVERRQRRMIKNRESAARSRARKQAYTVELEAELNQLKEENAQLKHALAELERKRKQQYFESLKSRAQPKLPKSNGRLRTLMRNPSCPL

[2] = biological target: T3, ABI5 (endogenous) (Arabidopsis (endogenous in seeds)) (UniProt Q9SJN0); experiment: co-IP; crude proteins of seeds germinated 24h with 2 uM ABA; anti-ABI5 on Dynabeads Protein G, overnight at 4°C; Co-IP buffer 50mM Tris-Cl pH 8.0, 150mM NaCl, 1mM EDTA, 0.1% Triton X-100; blots with anti-ABI5 and anti-HA
T3 sequence: T2 sequence

[3] = biological target: T4, ABI5 fused with the N-terminus of Venus YFP (pDEST-VYNE) (Arabidopsis) (UniProt Q9SJN0); experiment: split reporter; BiFC with Venus YFP halves in tobacco leaves, Agrobacterium infiltration, confocal microscopy two days after infiltration
T4 sequence: T2 sequence

binding [1]: no binding
B1: ABF2 (AD vector) (protein, UniProt Q9M7Q4 1-416)
chain: MDGSMNLGNEPPGDGGGGGGLTRQGSIYSLTFDEFQSSVGKDFGSMNMDELLKNIWSAEETQAMASGVVPVLGGGQEGLQLQRQGSLTLPRTLSQKTVDQVWKDLSKVGSSGVGGSNLSQVAQAQSQSQSQRQQTLGEVTLEEFLVRAGVVREEAQVAARAQIAENNKGGYFGNDANTGFSVEFQQPSPRVVAAGVMGNLGAETANSLQVQGSSLPLNVNGARTTYQQSQQQQPIMPKQPGFGYGTQMGQLNSPGIRGGGLVGLGDQSLTNNVGFVQGASAAIPGALGVGAVSPVTPLSSEGIGKSNGDSSSLSPSPYMFNGGVRGRKSGTVEKVVERRQRRMIKNRESAARSRARKQAYTVELEAEVAKLKEENDELQRKQARIMEMQKNQETEMRNLLQGGPKKKLRRTESGPW

binding [1]: no binding
B2: ABF3 (AD vector) (protein, UniProt Q9M7Q3 1-454)
chain: MGSRLNFKSFVDGVSEQQPTVGTSLPLTRQNSVFSLTFDEFQNSWGGGIGKDFGSMNMDELLKNIWTAEESHSMMGNNTSYTNISNGNSGNTVINGGGNNIGGLAVGVGGESGGFFTGGSLQRQGSLTLPRTISQKRVDDVWKELMKEDDIGNGVVNGGTSGIPQRQQTLGEMTLEEFLVRAGVVREEPQPVESVTNFNGGFYGFGSNGGLGTASNGFVANQPQDLSGNGVAVRQDLLTAQTQPLQMQQPQMVQQPQMVQQPQQLIQTQERPFPKQTTIAFSNTVDVVNRSQPATQCQEVKPSILGIHNHPMNNNLLQAVDFKTGVTVAAVSPGSQMSPDLTPKSALDASLSPVPYMFGRVRKTGAVLEKVIERRQKRMIKNRESAARSRARKQAYTMELEAEIAQLKELNEELQKKQVEIMEKQKNQLLEPLRQPWGMGCKRQCLRRTLTGPW

binding [1]: no binding
B3: ABF1 (AD vector) (protein, UniProt Q9M7Q5 1-392)
chain: MGTHIDINNLGGDTSRGNESKPLARQSSLYSLTFDELQSTLGEPGKDFGSMNMDELLKNIWTAEDTQAFMTTTSSVAAPGPSGFVPGGNGLQRQGSLTLPRTLSQKTVDEVWKYLNSKEGSNGNTGTDALERQQTLGEMTLEDFLLRAGVVKEDNTQQNENSSSGFYANNGAAGLEFGFGQPNQNSISFNGNNSSMIMNQAPGLGLKVGGTMQQQQQPHQQQLQQPHQRLPPTIFPKQANVTFAAPVNMVNRGLFETSADGPANSNMGGAGGTVTATSPGTSSAENNTWSSPVPYVFGRGRRSNTGLEKVVERRQKRMIKNRESAARSRARKQAYTLELEAEIESLKLVNQDLQKKQAEIMKTHNSELKEFSKQPPLLAKRQCLRRTLTGPW

binding (BD-ABI5 (Arabidopsis)): binds
B4: AD-ENAP1 (protein, UniProt Q8VZI9 1-249)
chain: T1 sequence

binding [2]: binds
B5: ENAP1:YFP:HA (35S::ENAP1:YFP:HA, ENAP1ox) (protein, UniProt Q8VZI9 1-249)
chain: T1 sequence

binding [3]: binds
B6: ENAP1 fused with the C-terminus of Venus YFP (pDEST-VYCE) (protein, UniProt Q8VZI9 1-249)
chain: T1 sequence

binding [1]: no binding
B7: ABF4 (AD vector) (protein, UniProt Q9M7Q2 1-431)
chain: MGTHINFNNLGGGGHPGGEGSSNQMKPTGSVMPLARQSSVYSLTFDELQNTLGGPGKDFGSMNMDELLKSIWTAEEAQAMAMTSAPAATAVAQPGAGIPPPGGNLQRQGSLTLPRTISQKTVDEVWKCLITKDGNMEGSSGGGGESNVPPGRQQTLGEMTLEEFLFRAGVVREDNCVQQMGQVNGNNNNGFYGNSTAAGGLGFGFGQPNQNSITFNGTNDSMILNQPPGLGLKMGGTMQQQQQQQQLLQQQQQQMQQLNQPHPQQRLPQTIFPKQANVAFSAPVNITNKGFAGAANNSINNNNGLASYGGTGVTVAATSPGTSSAENNSLSPVPYVLNRGRRSNTGLEKVIERRQRRMIKNRESAARSRARKQAYTLELEAEIEKLKKTNQELQKKQAEMVEMQKNELKETSKRPWGSKRQCLRRTLTGPW
